Assay results published in PubChem BioAssay AID1452 (National Center for Advancing Translational Sciences (NCATS), 2008).
About 190 (0.13%) of roughly 150,000 compounds were called active. Inconclusive means that the source gave no clear call. Such entries were picked first, then a sample of the others. Calls come from the whole dose curve; as a rule, active = well fitted inhibition curve with a large enough effect; inconclusive = small, poorly fitted or top-dose-only effect; inactive = flat fitted curve, though single readings scatter. Where the call is inconclusive, the potency comes from a doubtful curve fit.

Molecular target: Polyunsaturated fatty acid lipoxygenase ALOX12 (Homo sapiens) (UniProt P18054)
Assay: qHTS Assay for Inhibitors of 12-hLO (12-human lipoxygenase); note: nearly all actives have a fitted effect of over 55% in size
Details: purified 12-hLO, xylenol orange hydroperoxide absorbance; series mostly up to 57.1 µM; activity change, negative = inhibition: at the top concentration
How it was run: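 Hydroperoxide formation by human 12-lipoxygenase from 40 uM arachidonic acid was followed colorimetrically via ferric-xylenol orange complex, using the 573/405 nm absorbance ratio. Enzyme concentration was 150 nM, with 30 min reaction at room temperature.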
% is set by controls: 0 for no effect and ±100 for the full control effect; potency is the fitted concentration of half-maximal effect; tags give direction and shape of the fitted curve.

Sequence of UniProt P18054 (P18054 whole entry, looked up): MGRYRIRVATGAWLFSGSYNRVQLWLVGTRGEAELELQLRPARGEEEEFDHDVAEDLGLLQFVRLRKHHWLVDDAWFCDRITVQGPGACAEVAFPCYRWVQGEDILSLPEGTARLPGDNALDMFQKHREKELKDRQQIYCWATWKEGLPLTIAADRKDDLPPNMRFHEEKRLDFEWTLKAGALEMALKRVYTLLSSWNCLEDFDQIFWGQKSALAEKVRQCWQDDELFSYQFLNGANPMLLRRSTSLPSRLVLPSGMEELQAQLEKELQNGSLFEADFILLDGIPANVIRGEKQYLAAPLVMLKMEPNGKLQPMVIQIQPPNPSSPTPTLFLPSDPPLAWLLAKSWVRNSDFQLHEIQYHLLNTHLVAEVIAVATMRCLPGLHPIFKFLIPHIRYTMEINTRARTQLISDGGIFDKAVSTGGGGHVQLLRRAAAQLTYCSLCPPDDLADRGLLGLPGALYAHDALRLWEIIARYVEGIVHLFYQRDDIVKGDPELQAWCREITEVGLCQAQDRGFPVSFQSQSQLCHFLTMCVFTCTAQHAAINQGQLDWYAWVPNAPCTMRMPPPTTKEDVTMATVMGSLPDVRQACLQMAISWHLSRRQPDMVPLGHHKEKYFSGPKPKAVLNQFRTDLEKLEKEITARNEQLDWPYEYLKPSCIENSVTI

Potency, inconclusive:
COc1ccc(C2=Nc3ccccc3OC2)cc1 25.1 µM [inhibitor, single point]
O=C(CSc1nnc(Cc2cccs2)n1Cc1ccco1)Nc1ccc(Cl)cc1Cl 17.8 µM [inhibitor, partial curve]
CCOc1ccc(-c2[nH]ncc2-c2ccc(OC)c(OC)c2)c(O)c1 6.31 µM [inhibitor, partial curve]
CCOC(=O)c1sc(NCc2ccco2)c(-c2nc3ccccc3s2)c1N 17.8 µM [inhibitor, single point]
C#CCn1cc(/C=N/Nc2nc3ccccc3[nH]2)c2ccccc21 39.8 µM [inhibitor, single point]
CCOC(=O)c1c(-c2ccccc2)csc1NC(=S)NC(=O)c1ccccc1 28.2 µM [inhibitor, single point]
CCN1C(=O)/C(=C2/Sc3ccccc3N2CCCS(=O)(=O)O)SC1=S 15.8 µM [inhibitor, partial curve]
Nc1ccccc1C(=O)/C=C/c1ccc2c(c1)OCO2 28.2 µM [inhibitor, single point]
Cc1cccc(C(=O)N=c2c(C#N)cc3c(=O)n4cccc(C)c4nc3n2Cc2ccco2)c1 7.94 µM [inhibitor, full curve, poor fit]
COc1ccc(NC(=S)NCc2ccc3c(c2)cc(C)n3C)cc1 3.16 µM [inhibitor, full curve]
Cn1c(=O)n(C)c2cc(NS(=O)(=O)c3ccc4c(c3)CCCC4)ccc21 28.2 µM [inhibitor, single point]
COc1ccccc1-c1cn[nH]c(=S)n1 39.8 µM [inhibitor, single point]
N#C/C(=C\c1ccc(O)c(O)c1)C(=O)Nc1ccccc1 14.1 µM [inhibitor, partial curve]
Cc1cccc(Cc2c(C)nc3c(C(=O)NCc4ccco4)cnn3c2C)c1 31.6 µM [inhibitor, single point]
O=C1c2ccccc2C(=O)C12OC2c1cccc2ccccc12 (stereo not given) 31.6 µM [inhibitor, single point]
CC1CC(C)(C)CC2(C1)NC(=S)N(c1ccccc1)N2 (stereo not given) 1.26 µM [inhibitor, partial curve]
Cc1cc2n(n1)SC(Nc1ccc(F)c(Cl)c1)N2 (stereo not given) 8.91 µM [inhibitor, partial curve]
S=C(NCCC(c1ccccc1)c1ccccc1)Nc1ccc(Cl)cc1 28.2 µM [inhibitor, partial curve]
CCCN1C(=O)/C(=C/c2ccc(C)o2)SC1=Nc1ccc(OC)cc1 8.91 µM [inhibitor, partial curve]
CCOC(=O)c1[nH]c(Cc2[nH]c(C(=O)OCC)c(C)c2CCC(=O)OC)c(CCC(=O)OC)c1C 20 µM [inhibitor, partial curve]
O=C(NC(=S)Nc1nc2c(s1)CSc1ccccc1-2)c1ccccc1 28.2 µM [inhibitor, partial curve]
O=c1ccc2cc3c([nH]c4ccc(Br)cc43)oc-2c1O 1.41 µM [inhibitor, full curve, poor fit]
COc1cc(C2C(C#N)=C(N)Oc3c2ccc2ccccc32)ccc1OCC(=O)Nc1cccc(C)c1 (stereo not given) 22.4 µM [inhibitor, partial curve]
NC(=O)C1=CN([C@@H]2O[C@@H](COP(=O)(O)OP(=O)(O)OC[C@@H]3O[C@H](n4cnc5c(N)ncnc54)[C@@H](OP(=O)(O)O)[C@@H]3O)[C@H](O)[C@@H]2O)C=CC1 8.91 µM [inhibitor, single point]
CSc1nsc(SC)c1C(=O)NCCNS(=O)(=O)c1ccc(C)cc1 28.2 µM [inhibitor, single point]
Cc1ccc(/C=C(\NC(=O)c2ccc(C)cc2)c2nc(=S)[nH][nH]2)cc1 28.2 µM [inhibitor, single point]
Cc1ccc(S(=O)(=O)Nc2ccc(NC(=O)Nc3cccc(C(F)(F)F)c3)cc2)cc1 14.1 µM [inhibitor, partial curve]
CCOc1ccc(NC(=S)N2CCC(C(O)(c3ccccc3)c3ccccc3)CC2)cc1 35.5 µM [inhibitor, single point]

Potency, active:
Cc1cccc(Nc2nc(-c3cccs3)cs2)n1 17.8 µM
Oc1ccc(-c2csc(-c3ccccc3)n2)cc1O 12.6 µM

Activity change, negative = inhibition, inactive:
O=C(COC(=O)c1cccc(S(=O)(=O)N2CCOCC2)c1)Nc1nc(-c2ccccc2Cl)cs1 -0.443%
N#CC1(C#N)C2=C(CCCC2)NC(c2ccccc2)C1(C#N)C#N (stereo not given) -22.4%
CC(=O)N[C@@H](Cc1ccc(O)cc1)C(=O)O -5.37% [at 0.00818 µM]
N#Cc1ccsc1NC(=O)COC(=O)c1cc2ccccc2cc1O 1.69%
CS(=O)(=O)Nc1cccc(-c2nc(NCc3cccs3)c3ccccc3n2)c1 -8.12%
Cc1cccc(N2CCN(C(=O)C3CCCCC3)CC2)c1C -2.97%
CCS(=O)(=O)N1CCN(C(=O)c2ccco2)CC1 2.53%
CCCS(=O)(=O)NCCc1cc2ccc(C)cc2[nH]c1=O -1.74%
COc1ccccc1NC(=O)Cn1cnc2c(oc3ccccc32)c1=O 4.37%
O=C1C(Cl)=C(NCCCN2CCOCC2)C(=O)N1CCc1ccccc1 -12.2%
O=C(Nc1cccc(F)c1)N1CC[C@@]2(CCCN(C(=O)c3cc(C(F)(F)F)cc(C(F)(F)F)c3)C2)C1 3.1%
Cc1ccc(C2C3CSCC=C3C(C#N)=C(N)C2(C#N)C#N)cc1 (stereo not given) -11.4%
CCCCNC(=S)Nc1cc([N+](=O)[O-])ccc1C -3.2%
COc1ccc(N2CCN(C(=O)CN(c3ccccc3)S(=O)(=O)c3ccc(OC)cc3)CC2)cc1 -5.5%
CC(C)(C)C(=O)Cn1c(=N)n(Cc2ccccc2Cl)c2ccccc21 -4.16%
